Patent US20240368125A1, “NOVEL PYRAZINYL-TRIAZOLE COMPOUNDS AS PESTICIDES” (Bayer Aktiengesellschaft, priority 2021, published 2024)
Some results were stated once for a whole list of compounds, not compound by compound. For at least one compound, name, drawing or mass did not settle the structure. Some compounds share one range, which may span the group rather than tell each member.

Experiments:
Type in all cases: in vivo
[1] = test system: fall armyworm larvae (Spodoptera frugiperda); test: Spodoptera frugiperda spray test (SPODFR); settings: 100 g/ha, maize leaf sections, after 7 days
Procedure: Spodoptera frugiperda—Spray Test
(§1) Solvent: 78.0 parts by weight acetone • 1.5 parts by weight dimethylformamide
(§2) Emulsifier: alkylarylpolyglycol ether
(§3) To produce a suitable preparation of active compound, 1 part by weight of active compound is mixed with the stated amount of solvents and is diluted with water, containing an emulsifier concentration of 1000 ppm, to the desired concentration. Further test concentrations are prepared by dilution with emulsifier containing water.
Maize (Zea mays) leaf sections are sprayed with a preparation of the active ingredient of the desired concentration. Once dry, the leaf sections are infested with fall armyworm larvae (Spodoptera frugiperda).
After 7 days mortality in % is determined. 100% means all caterpillars have been killed and 0% means none of the caterpillars have been killed.
Spodoptera frugiperda—Spray Test (SPODFR
After the specified period of time, mortality in % is determined. 100% means all caterpillars have been killed and 0% means none of the caterpillars have been killed.

[2] = test system: larvae of the southern green stink bug (Nezara viridula); test: Nezara viridula spray test; settings: 500 g/ha, barley plants, after 4 days
Procedure: Nezara viridula—Spray Test
(§4) Solvent: 78.0 parts by weight of acetone • • 1.5 parts by weight of dimethylformamide
as §2
as §3, with “solvent,” for “solvents”, “and the concentrate” for “and”
Barley plants (Hordeum vulgare) are sprayed with a test solution containing the desired concentration of the active ingredient and are infested with larvae of the southern green stink bug (Nezara viridula).
After 4 days mortality in % is determined. 100% means all the stink bugs have been killed; 0% means none of the stink bugs have been killed.

[3] = test system: green peach aphid (Myzus persicae); test: Myzus persicae spray test (MYZUPE); settings: 100 g/ha, Chinese cabbage leaf disks, after 5 days
Procedure: Myzus persicae—Spray Test
as §1, §2, §3
Chinese cabbage (Brassica pekinensis) leaf disks infected with all instars of the green peach aphid (Myzus persicae), are sprayed with a preparation of the active ingredient of the desired concentration.
After 5 days mortality in % is determined. 100% means all aphids have been killed and 0% means none of the aphids have been killed.
Myzus persicae—Spray Test (MYZUPE
After the specified period of time, mortality in % is determined. 100% means all aphids have been killed and 0% means none of the aphids have been killed.

[4] = test system: brown planthopper (Nilaparvata lugens); test: Nilaparvata lugens spray test; settings: 500 g/ha, rice plants, after 4 days
Procedure: Nilaparvata lugens—Spray Test
as §4, §2, §3
Rice plants (Oryza sativa) are sprayed with a preparation of the active ingredient of the desired concentration and the plants are infested with the brown planthopper (Nilaparvata lugens).
After 4 days mortality in % is determined. 100% means all planthoppers have been killed and 0% means none of the planthoppers have been killed.

[5] = test system: adult mosquitoes Culex quinquefasciatus strain P00; test: Culex quinquefasciatus test (CULXFA surface treatment & contact assay); settings: 24 hours after contact
Procedure: Culex quinquefasciatus Test (CULXFA Surface Treatment & Contact Assay
(§5) Solvent: Aceton+2000 ppm rapeseed oil methyl ester (RME)
(§6) In order to produce a sufficient, active ingredient containing solution it is necessary to solve the test compound in the solvent-mix (acetone at 2 mg/ml/RME 2000 ppm). This solution is pipetted onto a glazed tile and after evaporation of the acetone, adult mosquitoes of the species Culex quinquefasciatus strain P00 are placed onto the dried surface. The exposure time is 30 minutes. Mortality in percent (%) is determined 24 hours after contact of the insects to the treated surface. 100% mortality means that all tested insects are dead, whereas 0% means that no insect died.

[6] = test system: adult mosquitoes Aedes aegypti strain MONHEIM; test: Aedes aegypti test (AEDSAE surface treatment & contact assay); settings: 24 hours after contact
Procedure: Aedes aegypti Test (AEDSAE Surface Treatment & Contact Assay
as §5
as §6, with “Aedes aegypti” for “Culex quinquefasciatus”, “MONHEIM” for “P00”

[7] = test system: adult Blattella germanica strain PAULINIA; test: Blattella germanica test (BLTTGE surface treatment & contact assay); settings: 24 hours after contact
Procedure: Blattella germanica Test (BLTTGE Surface Treatment & Contact Assay
as §5
In order to produce a sufficient, active ingredient containing solution it is necessary to solve the test compound in the solvent-mix (acetone at 2 mg/ml/RME 2000 ppm). This solution is pipetted onto a glazed tile and after evaporation of the acetone, adult animals of the species Blattella germanica strain PAULINIA are placed onto the dried surface. The exposure time is 30 minutes.
Mortality in percent (%) is determined 24 hours after contact of the insects to the treated surface. 100% mortality means that all tested insects are dead, whereas 0% means that no insect died.

[8] = surface concentration 4 mg/m^2, 30 min exposure
[9] = surface concentration 20 mg/m^2, 30 min exposure

SMILES | mortality [1] | mortality [2] | mortality [3] | further results
C[C@H](NC(=O)c1cc(F)cc(OC(F)(F)F)c1)c1ncnn1-c1cnc(C(N)=O)cn1 [Example I-068] | 100% | – | – | –
C[C@H](NC(=O)c1cc(C(F)F)cc(C(F)F)c1)c1nc(C2CC2)nn1-c1cnc(C(N)=O)cn1 [Example I-071] | 100% | – | – | –
C[C@H](NC(=O)c1cc(C(F)(F)F)cc(C(F)(F)F)c1)c1nc(C2CC2)nn1-c1cnc(C(=O)N(C)C2CC2)cn1 [Example I-058] | 100% | – | – | –
CNC(=O)c1cnc(-n2ncnc2[C@H](C)NC(=O)c2cc(Cl)cc(S(C)(=O)=O)c2)cn1 [Example I-098] | – | 100% | 90% | mortality [4]: 100%
C[C@H](NC(=O)c1cc(OC(F)(F)F)cc(S(C)(=O)=O)c1)c1nc(C2CC2)nn1-c1cnc(C(N)=O)cn1 [Example I-095] | – | 100% | – | –
C[C@H](NC(=O)c1cc(OC(F)(F)F)cc(C2CC2)c1)c1nc(C2CC2)nn1-c1cnc(C(N)=O)cn1 [Example I-061] | 100% | – | – | –
Cc1nc([C@H](C)NC(=O)c2cc(OC(F)(F)F)cc(S(=O)(=O)C(F)F)c2)n(-c2cnc(C(=O)NCC#N)cn2)n1 [Example I-090] | 100% | – | – | –
CNC(=O)c1cnc(-n2nc(C)nc2[C@H](C)NC(=O)c2cc(OC(F)(F)F)cc(C3CC3)c2)cn1 [Example I-045] | 100% | – | 90% | mortality [4]: 100%
C[C@H](NC(=O)c1cc(Br)cc(S(F)(F)(F)(F)F)c1)c1nc(C2CC2)nn1-c1cnc(C(N)=O)cn1 [Example I-075] | 100% | – | – | –
CCN(C)C(=O)c1cnc(-n2nc(C)nc2[C@H](C)NC(=O)c2cc(OC(F)(F)F)cc(OC(F)(F)F)c2)cn1 [Example I-038] | 100% | 100% | 90% | mortality [4]: 100%; efficacy (mortality) [5, 8]: 80-100%; efficacy (mortality) [5, 9]: 80-100%; efficacy (mortality) [6, 8]: 80-100%; efficacy (mortality) [6, 9]: 80-100%
C[C@H](NC(=O)c1cc(OC(F)(F)F)cc(S(C)(=O)=O)c1)c1ncnn1-c1cnc(C(=O)NCC#N)cn1 [Example I-086] | 100% | 100% | – | –
Cc1nc([C@H](C)NC(=O)c2cc(C(F)(F)F)cc(C(F)(F)F)c2)n(-c2cnc(C(=O)N(C)CC#N)cn2)n1 [Example I-103] | 100% | 100% | 90% | –
Cc1nc([C@H](C)NC(=O)c2cc(OC(F)F)cc(OC(F)F)c2)n(-c2cnc(C(=O)NCC#N)cn2)n1 [Example I-093] | 100% | 100% | – | –
C[C@H](NC(=O)c1cc(OC(F)(F)F)cc(S(=O)(=O)C(F)F)c1)c1ncnn1-c1cnc(C(=O)NCC#N)cn1 [Example I-091] | – | 100% | – | –
C[C@H](NC(=O)c1cc(Cl)cc(S(F)(F)(F)(F)F)c1)c1nc(C2CC2)nn1-c1cnc(C(N)=O)cn1 [Example I-074] | 100% | – | – | –
C[C@H](NC(=O)c1cc(OC(F)(F)F)cc(OC(F)(F)F)c1)c1nc(C2CC2)nn1-c1cnc(C(N)=O)cn1 [Example I-062] | 100% | – | – | –

SMILES | mortality [1] | mortality [2] | mortality [3] | further results
Cc1nc([C@H](C)NC(=O)c2cc(F)cc(OC(F)(F)F)c2)n(-c2cnc(C(N)=O)cn2)n1 [Example I-069] | 100% | 100% | – | –
C[C@H](NC(=O)c1cc(OC(F)(F)F)cc(S(C)(=O)=O)c1)c1ncnn1-c1cnc(C(=O)N(C)CC#N)cn1 [Example I-104] | – | – | 100% | –
C[C@H](NC(=O)c1cc(C(F)(F)F)cc(C(F)(F)F)c1)c1nc(C2CC2)nn1-c1cnc(C(=O)NC2CC2)cn1 [Example I-056] | 100% | – | – | –
C[C@H](NC(=O)c1cc(Cl)cc(S(C)(=O)=O)c1)c1ncnn1-c1cnc(C(=O)NCC#N)cn1 [Example I-088] | – | 100% | – | –
CNC(=O)c1cnc(-n2nc(C)nc2[C@H](C)NC(=O)c2cc(OC(F)(F)F)cc(C3(C#N)CC3)c2)cn1 [Example I-054] | 100% | 100% | 90% | mortality [4]: 100%
C[C@H](NC(=O)c1cc(OC(F)(F)F)cc(C2(C#N)CC2)c1)c1nc(C2CC2)nn1-c1cnc(C(N)=O)cn1 [Example I-072] | 100% | – | – | –
Cc1nc([C@H](C)NC(=O)c2cc(Br)cc(C(C)(C)F)c2)n(-c2cnc(C(N)=O)cn2)n1 [Example I-073] | 100% | 100% | – | mortality [4]: 100%
C[C@H](NC(=O)c1cc(C(F)(F)F)cc(C(F)(F)F)c1)c1nc(C2CC2)nn1-c1cnc(C(N)=O)cn1 [Example I-057] | 100% | – | – | –
Cc1nc([C@H](C)NC(=O)c2cc(Cl)cc(S(C)(=O)=O)c2)n(-c2cnc(C(=O)NCC#N)cn2)n1 [Example I-092] | – | 100% | – | –
C[C@H](NC(=O)c1cc(Br)cc(C(C)(C)F)c1)c1ncnn1-c1cnc(C(N)=O)cn1 [Example I-063] | 100% | – | – | –
Cc1nc([C@H](C)NC(=O)c2cc(OC(F)(F)F)cc(OC(F)(F)F)c2)n(-c2cnc(C(=O)N(C)C)cn2)n1 [Example I-037] | 100% | 100% | 100% | mortality [4]: 100%; efficacy (mortality) [7, 9]: 80-100%; efficacy (mortality) [5, 9]: 80-100%; efficacy (mortality) [6, 8]: 80-100%; efficacy (mortality) [6, 9]: 80-100%
C[C@H](NC(=O)c1cc(C(F)(F)F)cc(C(F)(F)F)c1)c1ncnn1-c1cnc(C(=O)N(C)CC#N)cn1 [Example I-102] | 100% | 100% | 100% | –
C[C@H](NC(=O)c1cc(OC(F)F)cc(OC(F)F)c1)c1ncnn1-c1cnc(C(=O)NCC#N)cn1 [Example I-089] | 100% | – | – | –
Cc1nc([C@H](C)NC(=O)c2cc(OC(F)(F)F)cc(S(C)(=O)=O)c2)n(-c2cnc(C(=O)NCC#N)cn2)n1 [Example I-087] | – | 100% | – | –
Cc1nc([C@H](C)NC(=O)c2cc(OC(F)(F)F)cc(S(C)(=O)=O)c2)n(-c2cnc(C(=O)N(C)C3CC3)cn2)n1 [Example I-040] | 100% | 100% | 100% | mortality [4]: 100%
C[C@H](NC(=O)c1cc(OC(F)(F)F)cc(OC(F)(F)F)c1)c1ncnn1-c1cnc(C(=O)N(C)C)cn1 [Example I-025] | 100% | 100% | 90% | mortality [4]: 100%; efficacy (mortality) [7, 8]: 80-100%; efficacy (mortality) [7, 9]: 80-100%; efficacy (mortality) [5, 9]: 80-100%; efficacy (mortality) [6, 8]: 80-100%; efficacy (mortality) [6, 9]: 80-100%
